Results taken from PMC4336329 (PLoS ONE, 2015).
About 14,000 (4.5%) of roughly 310,000 compounds showed an effect of 50% or more. Effects have a minus sign here. The list shows a part of the results.

Molecular target: human ether-à-go-go-related gene (hERG) potassium channel (human, UniProt Q12809)
Assay: primary screen, population patch clamp on CHO cells stably expressing hERG
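Further: peak tail current of the secondary pulse compared with the same well before compound.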

Chain of human ether-à-go-go-related gene (hERG) potassium channel (Q12809 whole entry, looked up): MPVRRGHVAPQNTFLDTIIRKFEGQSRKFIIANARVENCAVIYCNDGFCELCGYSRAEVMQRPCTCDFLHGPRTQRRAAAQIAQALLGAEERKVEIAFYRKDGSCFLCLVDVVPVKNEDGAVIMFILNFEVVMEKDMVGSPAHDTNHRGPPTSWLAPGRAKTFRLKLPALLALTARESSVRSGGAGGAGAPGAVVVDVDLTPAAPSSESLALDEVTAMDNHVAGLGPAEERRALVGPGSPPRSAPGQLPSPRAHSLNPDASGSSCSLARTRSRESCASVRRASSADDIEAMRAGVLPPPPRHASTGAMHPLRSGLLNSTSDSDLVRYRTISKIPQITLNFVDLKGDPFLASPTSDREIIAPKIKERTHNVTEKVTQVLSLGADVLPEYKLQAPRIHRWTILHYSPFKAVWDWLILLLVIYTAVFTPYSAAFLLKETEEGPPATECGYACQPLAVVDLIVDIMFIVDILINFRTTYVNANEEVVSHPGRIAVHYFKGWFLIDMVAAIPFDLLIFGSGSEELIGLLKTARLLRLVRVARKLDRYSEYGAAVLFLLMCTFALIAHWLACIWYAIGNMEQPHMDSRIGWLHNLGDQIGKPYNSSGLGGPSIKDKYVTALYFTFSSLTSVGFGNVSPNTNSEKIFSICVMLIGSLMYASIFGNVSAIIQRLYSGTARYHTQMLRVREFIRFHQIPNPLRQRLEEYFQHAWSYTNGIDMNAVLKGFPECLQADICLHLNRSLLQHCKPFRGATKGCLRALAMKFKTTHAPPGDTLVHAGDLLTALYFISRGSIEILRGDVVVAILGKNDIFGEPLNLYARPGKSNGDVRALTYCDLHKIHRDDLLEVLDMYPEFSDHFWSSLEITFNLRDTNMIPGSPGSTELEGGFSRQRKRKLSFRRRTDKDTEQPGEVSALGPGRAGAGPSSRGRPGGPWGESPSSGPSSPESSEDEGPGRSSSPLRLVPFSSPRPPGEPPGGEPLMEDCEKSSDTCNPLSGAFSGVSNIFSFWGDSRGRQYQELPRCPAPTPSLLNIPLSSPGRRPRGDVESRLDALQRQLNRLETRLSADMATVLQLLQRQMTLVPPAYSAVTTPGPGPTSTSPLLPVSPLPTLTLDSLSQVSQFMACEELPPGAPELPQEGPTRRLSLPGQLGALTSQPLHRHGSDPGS

| SMILES | hERG current change (%, negative = inhibition) at 10uM |
| --- | --- |
| CCOc1ccc2nc(NCCCNS(=O)(=O)c3ccc(F)cc3)c(C#N)cc2c1 | 6.2% |
| N#CCSc1nc2scc(-c3cccs3)c2c(=O)n1CCc1ccccc1 | 9.89% |
| COc1ccccc1-n1nc(C(=O)O)c2ccccc2c1=O | 8.83% |
| CC(c1nnc(SCC(=O)N2CC(=O)Nc3ccccc32)n1Cc1ccccc1)N(C)C (stereo not drawn) | 5.73% |
| CCNC(=O)NC(=O)CN(C)c1ccccc1 | 10.5% |
| O=C(CCC(=O)Nc1ccccc1Cl)NNC(=O)NC1CCCCC1 | -16.7% |
| CCOC(=O)N1CCN(C(=O)C2CCN(Cc3ccc(O)c(OCC)c3)CC2)CC1.O=C(O)C(=O)O | 20.2% |
| O=C(C[n+]1ccccc1)N/N=C/c1cc(Br)ccc1F.[Cl-] | 0.815% |
| Cc1nc2ccc(NS(=O)(=O)c3ccc(Br)cc3)cc2s1 | 5.95% |
| CCOCCCNS(=O)(=O)c1ccc2c(c1)CCN2C(=O)CC | 5.75% |
| O=C(CC1C(=O)NCCN1Cc1cccc(F)c1)NC1CCC1 (stereo not drawn) | -3.12% |
| Cn1c(=O)c2[nH]c(N3CCN(c4ccccn4)CC3)nc2n(C)c1=O | 20.6% |
| CCOc1ccc(N(CC(=O)NCC2CCCO2)S(=O)(=O)c2ccc(OC)c(OC)c2)cc1 (stereo not drawn) | 0.188% |
| Nn1c(-c2ccc(F)cc2)nc2ccccc2c1=O | 17.9% |
| CCOc1cc(/C=C2\SC(N3CCCCC3)=NC2=O)ccc1O | 3.1% |
| O=C1Nc2c(c(=O)[nH]c(=O)n2-c2ccc(F)cc2)C1(NS(=O)(=O)c1ccccc1)C(F)(F)F (stereo not drawn) | 2.26% |
| CC(=O)Nc1cccc(NC(=O)C2CC3CCC2C3)c1 (stereo not drawn) | -3.64% |
| COC(=O)CCSc1nc(N2CCOCC2)c2c(c1C#N)CC(C)(C)OC2 | 7.63% |
| Cc1c(Cl)cccc1NC(=O)c1cc(S(=O)(=O)N2CCOCC2)cn1C | -12.5% |

| SMILES | hERG current change (%, negative = inhibition) at 10uM |
| --- | --- |
| COc1ccc(NC(=O)Nc2ccc3nc(C)c(C)nc3c2)cc1 | 14.5% |
| Cn1c(=O)n(CCCOc2ccc(Cl)cc2)c2ccccc21 | -13.7% |
| NS(=O)(=O)c1ccc(CCNS(=O)(=O)c2cccc3nsnc23)cc1 | 14.1% |
| Cc1ccc(S(=O)(=O)N[C@@H](C)C(=O)N2CCC(C(=O)N[C@@H](Cc3ccccc3)C(=O)O)CC2)cc1 | -4.39% |
| Cc1ccc(NC(=O)CCC(=O)OC(C)C(=O)c2ccccc2)cc1 (stereo not drawn) | 17.7% |
| CC(NC(=O)c1ccc(Cl)cc1)c1nnc(SCc2ccc([N+](=O)[O-])cc2)n1C (stereo not drawn) | -19.4% |
| O=[N+]([O-])c1ccccc1N/N=C/c1ccccc1 | 12.8% |
| Cc1sc(CO)c(Sc2ccccc2)c1C(=O)O | 2.84% |
| CC1CCN(C(=O)c2cccc(NC(=O)c3cccs3)c2)CC1 | -19.9% |
| CC1(C)C(=O)OC(c2cccs2)C2(CCCCC2)C1=O (stereo not drawn) | 1.39% |
| Cc1ccccc1C(=O)Nc1ccc(S(=O)(=O)N2CCOCC2)cc1 | 1.55% |
| CC(C)N1CC(C(=O)Nc2ccccc2)CC1=O (stereo not drawn) | 11.4% |
| COC(=O)CN1C(=O)COc2ccc(S(=O)(=O)N3CCOCC3)cc21 | 12.6% |
| CCCCOc1ccc(C2C(=O)N(C3CCCCC3)CC(=O)N2CC2CCCO2)cc1 (stereo not drawn) | -37.3% |
| COC(=O)c1sc(N2CCN(c3ccc(Cl)cc3)CC2)nc1N | 10.7% |
| COc1ccc(Oc2c(-c3ccc(O)cc3O)n[nH]c2C)cc1 | 10.4% |
| COc1ccc(COC(=O)c2ccc(Br)c(S(=O)(=O)N3CCOCC3)c2)cc1F | -10.4% |
| CCN(CC)CCNC(=O)c1ccc(NC(=O)c2ccc(F)cc2F)cc1.Cl | -36% |
| O=C(O)c1ccc(S(=O)(=O)N2CCC(Cc3ccccc3)CC2)cc1 | 13.2% |

| SMILES | hERG current change (%, negative = inhibition) at 10uM |
| --- | --- |
| Cc1ccccc1OCCC(=O)OCC(=O)Nc1ccc(N2CCOCC2)cc1 | -21.3% |
| O=C1CNC(=O)/C(=C\c2ccccc2)N1 | 11.8% |
| CN(Cc1nccs1)C(=O)C1CCC(=O)N(CCc2cccc(F)c2)C1 (stereo not drawn) | -12.4% |
| COC(=O)C(=Cc1ccc(-c2ccsc2C(=O)OC)o1)C(=O)OC | 12% |
| CCN1CCN(Cc2c(O)ccc3c(C)cc(=O)oc23)CC1 | 33.1% |
| C=C(C)COc1ccc(-c2n[nH]c(C)c2-c2ccc(Br)cc2)c(O)c1 | -14.5% |
| COc1c(OC(C)=O)ccc(/C=C/c2ccc3ccccc3n2)c1[N+](=O)[O-] | -5.48% |
| CN(Cc1ccc(OC(F)F)cc1)C(=O)c1ccc2nccnc2c1 | -67.8% |
| Cc1c(Cc2ccccc2)c(NCCCO)n2c(nc3ccccc32)c1C#N | -6.81% |
| O=C(Nc1ccc(S(=O)(=O)N2CCCC2)cc1)c1ccc(CN2CCc3ccccc3C2)cc1 | -3.13% |
| O=C(Nc1cccc(C(=O)Nc2ccc(Br)cc2)c1)c1ccccc1 | 8.18% |
| CCCC(=O)NCCc1nc2ccccc2n1CCC | 1.27% |
| O=C(CCN1CCOCC1)NNC(=S)NC(=O)c1ccc(Br)cc1 | 52.7% |
| Cc1c(C(=O)N/N=C/c2ccccc2)[nH]c2ccc(Cl)cc12 | 27.8% |
| CCN(CC)S(=O)(=O)c1ccc(-c2nnc(SC)o2)cc1 | -9.82% |
| CC(OC(=O)c1ccccc1Br)C(=O)Nc1nc(-c2cccc([N+](=O)[O-])c2)cs1 (stereo not drawn) | -4.81% |
| COC(C/C=C/[C@@H](O)[C@H](C)OCc1ccccc1)OC | 12.2% |
| COc1ccc(OCC(=O)Nc2c(Cl)ccc3nsnc23)cc1 | -10.8% |
| CCOC(=O)N1CCC(c2nc(C)sc2C(=O)O)CC1 | 20.7% |
